In the supplement of paper PMC9446081 one finds relative growth data, which are given here for 64 molecules.

Out of some 39,000 compounds screened, about 220 (0.56%) showed activity. The list shows a part of the results.
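Also: static incubation at 37 °C against the wild-type strain, values averaged over two biological replicates.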

The assay relates to Escherichia coli K-12 BW25113. The experiment in a line: relative growth (OD600 normalised to plate interquartile mean) (fraction); higher = less growth inhibition, active = 0.2 or less. The note with it: 50 µM; LB; incubation time: overnight (16-24 h).
Regarding `O=C(C[C@H]1C[C@H]2c3cc(NS(=O)(=O)c4ccc(F)cc4)ccc3O[C@H]2[C@H](CO)O1)N1CCCCC1`, the relative growth was inactive: 0.994.
Take `COc1ccc(CN(C)C[C@@H]2Oc3ccc(NS(C)(=O)=O)cc3CC(=O)N([C@@H](C)CO)C[C@H]2C)cc1`: the relative growth was inactive: 1.
Next, `C[C@@H]1CCCCO[C@@H](CN(C)C(=O)Nc2ccccc2)[C@@H](C)CN([C@@H](C)CO)C(=O)c2cc(NC(=O)Nc3cccc4ccccc34)ccc2O1`: inactive: 0.98; `Cc1nn(C)cc1NC(=O)C[C@@H]1CC[C@H]2[C@@H](COc3ccc(NC(=O)C4CCOCC4)cc3C(=O)N2C)O1`: inactive: 0.972; `COCC#Cc1cnc2c(c1)C(=O)N([C@@H](C)CO)C[C@@H](C)[C@H](CN(C)S(=O)(=O)c1cn(C)cn1)O2`: inactive: 0.987.
Turning to `COc1ccc(NC(=O)N(C)C[C@@H]2Oc3ccc(NC(=O)C4CC4)cc3C(=O)N([C@H](C)CO)C[C@H]2C)cc1`, the relative growth was inactive: 0.991.
Next, `COc1ccc(CNC(=O)[C@H](c2ccc(C)cc2)N(Cc2cccs2)C(=O)c2ccc3c(c2)OCCO3)cc1`: inactive: 0.984.
In the case of `Cc1ccc(S(=O)(=O)N(C)C[C@H]2Oc3ccc(NS(=O)(=O)c4c(C)noc4C)cc3C(=O)N([C@@H](C)CO)C[C@@H]2C)cc1` it was inactive: 1.03; in that of `COc1ccccc1-c1ccc2c(c1)O[C@@H](CN(C)S(=O)(=O)c1ccccc1)[C@@H](C)CN([C@@H](C)CO)S2(=O)=O`, inactive: 1.03; in that of `Cc1cc(C(=O)NCc2cc3n(n2)CCN(S(C)(=O)=O)C3)nc(C)n1`, inactive: 0.962.
Consider `O=C(C[C@H]1C[C@@H]2c3cc(NC(=O)Cc4ccncc4)ccc3O[C@@H]2[C@@H](CO)O1)NCCN1CCCCC1`, for which the relative growth was inactive: 0.983.
Take `C[C@@H]1CN([C@@H](C)CO)C(=O)c2cc(NS(=O)(=O)c3ccccc3)ccc2O[C@@H]1CN(C)S(=O)(=O)c1cn(C)cn1`: the relative growth is inactive: 1.02.
In the case of `Cc1noc(C)c1S(=O)(=O)Nc1ccc2c(c1)C(=O)N([C@@H](C)CO)C[C@@H](C)[C@H](CN(C)C(=O)Nc1ccc(C(F)(F)F)cc1)OCCCC[C@@H](C)O2` it was inactive: 1.01; in that of `C[C@]12CC[C@@H]3c4ccc(O)cc4C[C@@H](CCCCCCCCC[S@@](=O)CCCC(F)(F)C(F)(F)F)[C@H]3[C@@H]1CC[C@@H]2O`, inactive: 1.01.
Next, `C[C@@H]1CN([C@H](C)CO)C(=O)c2cccc(NS(C)(=O)=O)c2O[C@@H]1CN(C)C(=O)NC1CCCCC1`: inactive: 0.99; `CC(C)c1cc(=O)nc[nH]1`: inactive: 0.991.
In the case of `NNC(=S)NCc1ccc(F)cc1` it was inactive: 0.993.
Regarding `C[C@H](CO)N1C[C@H](C)[C@H](CN(C)C(=O)Nc2cccc3ccccc23)Oc2ncc(C#Cc3ccccc3)cc2C1=O`, the relative growth was inactive: 0.961.
Next, `COc1ccc(NC(=O)N(C)C[C@@H]2OCCCC[C@H](C)Oc3ccc(NS(=O)(=O)c4cccs4)cc3C(=O)N([C@H](C)CO)C[C@@H]2C)cc1`: inactive: 1.02; `C[C@@H]1CCCCO[C@H](CN(C)Cc2ccc(Cl)c(Cl)c2)[C@@H](C)CN([C@H](C)CO)C(=O)c2cc(NS(=O)(=O)c3ccc(F)cc3)ccc2O1`: inactive: 1.01; `COc1ccc(NC(=O)Nc2ccc3c(c2)CC(=O)N([C@@H](C)CO)C[C@@H](C)[C@H](CN(C)S(=O)(=O)c2cn(C)cn2)O3)cc1`: inactive: 0.993.
In the case of `CC(C)(CO)NC(=O)C(=O)NC1CC1` it was inactive: 0.986; in that of `Nn1c(Nc2ccc(Cl)cc2)nncc1=O`, inactive: 0.978.
As to `CO[C@@H]1CN(C)C(=O)c2ccc(NS(C)(=O)=O)cc2OC[C@H](C)N(C(=O)CN(C)C)C[C@@H]1C`, the relative growth is inactive: 1.02.
Next, `CCS(=O)(=O)Nc1ccc2c(c1)C(=O)N(C)[C@H]1CC[C@H](CC(=O)NCc3ccccc3F)O[C@@H]1CO2`: inactive: 0.964.
In the case of `C[C@@H]1CN([C@@H](C)CO)C(=O)c2cc(NS(=O)(=O)c3ccc(F)cc3)ccc2O[C@@H](C)CCCCO[C@H]1CN(C)Cc1ccccc1` it was inactive: 0.979; in that of `C[C@H]1CN([C@@H](C)CO)C(=O)c2cccc(NC(=O)Nc3ccc(C(F)(F)F)cc3)c2O[C@H]1CN(C)C(=O)Nc1ccc2c(c1)OCO2`, inactive: 0.872.
In the case of `COc1ccc(S(=O)(=O)Nc2ccc3c(c2)C(=O)N([C@@H](C)CO)C[C@H](C)[C@H](CN(C)C(=O)CCC(F)(F)F)OCCCC[C@@H](C)O3)cc1` it was inactive: 0.972.
With `NNc1ccc2nncn2n1`, the relative growth is inactive: 0.977.
Next, `COc1ccc(CN(C)C[C@@H]2Oc3ccc(NC(=O)Nc4ccc(C(F)(F)F)cc4)cc3CC(=O)N([C@H](C)CO)C[C@@H]2C)cc1`: inactive: 1.04; `Cc1ccc(C(=O)N2c3ccccc3Sc3ccccc32)cc1`: inactive: 1.02.
In the case of `C[C@@H]1CN([C@@H](C)CO)C(=O)c2cc(NS(=O)(=O)c3cccs3)ccc2O[C@@H](C)CCCCO[C@H]1CN(C)Cc1ccc(C(F)(F)F)cc1` it was inactive: 1.03.
In the case of `C[C@H](CO)N1C[C@H](C)[C@H](CN(C)Cc2cccc(C(=O)O)c2)OCc2ccccc2-c2c(n(C)c3ccccc23)C1=O` it was inactive: 0.957.
For `O=C(C[C@@H]1C[C@H]2c3cc(NC(=O)c4ccc5c(c4)OCO5)ccc3O[C@H]2[C@H](CO)O1)NCc1cccnc1`, the relative growth is inactive: 1.01.
In the case of `Cc1noc(C)c1NC(=O)N(C)C[C@@H]1Oc2ccc(NC(=O)c3ccncc3)cc2CC(=O)N([C@H](C)CO)C[C@@H]1C` it was inactive: 0.98; in that of `COc1ccc(NC(=O)Nc2cccc3c2O[C@H](CN(C)CC2CCCCC2)[C@H](C)CN([C@@H](C)CO)C3=O)cc1`, inactive: 1.02; in that of `Cc1noc(C)c1NC(=O)N(C)C[C@@H]1Oc2ccc(NS(=O)(=O)c3cn(C)cn3)cc2CC(=O)N([C@@H](C)CO)C[C@@H]1C`, inactive: 0.997.
Regarding `CC(C)CN1C(=O)[C@@]2(c3ccc([N+](=O)[O-])cc3)CC(=O)N(CC3C4CC5CC(C4)CC3C5)[C@@H]2c2ccc(CO)cc21` (some centres undefined), the relative growth is inactive: 1.
Next, `CNC(=O)CN1C(=O)c2ccccc2S1(=O)=O`: inactive: 0.937; `O=C(NC(CO)C(O)c1ccc([N+](=O)[O-])cc1)C(Cl)Cl` (centres undefined): active: 0.0428.
On to `CC(C)(Sc1ccncc1-c1ccc(C#N)c2ccccc12)C(=O)O`, for which the relative growth was inactive: 1.01.
For `C[C@@H]1CN([C@H](C)CO)C(=O)c2cc(C#CC(C)(C)O)cnc2O[C@H]1CN(C)C(=O)CN(C)C`, the relative growth was inactive: 0.991.
Next, `CCN1C(=O)C(N=O)N(CC)C1=S` (centres undefined): inactive: 0.995.
In the case of `Cc1noc(C)c1NC(=O)Nc1ccc2c(c1)C(=O)N([C@H](C)CO)C[C@H](C)[C@H](CN(C)C(=O)Nc1ccccc1)OCCCC[C@@H](C)O2` it was inactive: 0.991; in that of `C[C@@H]1CCCCO[C@@H](CN(C)C(=O)Nc2ccc3c(c2)OCO3)[C@@H](C)CN([C@H](C)CO)C(=O)c2cc(NS(=O)(=O)c3ccccc3)ccc2O1`, inactive: 1.01.
`O=C(O)CCCNC(=O)c1cncc(O)c1`: the relative growth is inactive: 0.99.
In the case of `COc1ccc(NC(=O)N(C)C[C@@H]2Oc3ccc(NC(=O)CCCCCC(=O)Nc4ccccc4N)cc3CC(=O)N([C@@H](C)CO)C[C@H]2C)cc1` it was inactive: 0.976; in that of `C[C@@H]1CN([C@H](C)CO)C(=O)Cc2cc(NC(=O)NC3CCCCC3)ccc2O[C@H]1CN(C)Cc1ccc(Oc2ccccc2)cc1`, inactive: 1.07; in that of `CCN(CC)CCOCCOC(=O)C(CC)(CC)c1ccccc1.O=C(O)CC(O)(CC(=O)O)C(=O)O`, inactive: 1.1.
In the case of `c1cc(CNC2CCCC2)cs1` it was inactive: 0.968; in that of `COc1ccc(NC(=O)N(C)C[C@H]2Oc3ccc(NS(=O)(=O)c4c(C)noc4C)cc3CC(=O)N([C@H](C)CO)C[C@H]2C)cc1`, inactive: 0.95.
Turning to `C[C@H]1CN([C@@H](C)CO)C(=O)c2cc(NC(=O)Cc3ccccc3)ccc2O[C@H]1CN(C)Cc1ccc(Oc2ccccc2)cc1`, the relative growth was inactive: 0.989.
Next, `CC(C)NC(=O)Nc1ccc2c(c1)C(=O)N([C@@H](C)CO)C[C@H](C)[C@@H](CN(C)S(C)(=O)=O)OCCCC[C@H](C)O2`: inactive: 1.02; `C[C@H]1CCCCO[C@@H](CN(C)C(=O)c2ccccc2)[C@@H](C)CN([C@@H](C)CO)C(=O)c2cc(NC(=O)C3CCCCC3)ccc2O1`: inactive: 0.984; `O=C(O)c1cnc[nH]1`: inactive: 0.909.
Next, `CO[C@@H]1CN(C)C(=O)c2cc(NS(=O)(=O)CC(F)(F)F)ccc2OC[C@@H](C)N(Cc2nccs2)C[C@H]1C`: inactive: 0.997.
Next, `C[C@@H]1CCCCO[C@@H](CN(C)C(=O)Nc2ccccc2)[C@H](C)CN([C@@H](C)CO)C(=O)c2cc(NC(=O)Nc3ccccc3)ccc2O1`: inactive: 1.04.
Regarding `C[C@@H]1CN([C@@H](C)CO)C(=O)c2cccc(NC(=O)C3CC3)c2O[C@H]1CN(C)C(=O)NC1CCCCC1`, the relative growth is inactive: 1.
Consider `Cc1noc(C)c1NC(=O)N(C)C[C@@H]1Oc2ccc(NC(=O)C3CC3)cc2CC(=O)N([C@@H](C)CO)C[C@H]1C`, for which the relative growth is inactive: 0.994.
In the case of `CCn1c(-n2nc(C)cc2C)nc2c1c(=O)n(CC(N)=O)c(=O)n2C` it was inactive: 0.997; in that of `COc1ccc(NC(=O)Nc2ccc3c(c2)CC(=O)N([C@@H](C)CO)C[C@@H](C)[C@H](CN(C)Cc2ccc(-c4ccccc4)cc2)O3)cc1`, inactive: 0.968; in that of `CC(C)(C)Cc1ccc(OCCCC(=O)O)c(CC(C)(C)C)c1`, inactive: 1.04.
In the case of `O=C1NC2=C(C(=O)OC2)[C@H](c2ccccc2)N1` it was inactive: 0.96; in that of `C[C@@H]1CN([C@H](C)CO)C(=O)Cc2cc(NC(=O)CCC(F)(F)F)ccc2O[C@H]1CN(C)C(=O)Nc1cccc2ccccc12`, inactive: 0.991.
